In US5371186A, “Synthetic peptides for detoxification of bacterial endotoxins and for the prevention and treatment of septic shock” (priority 1992, dated 1994):
Entries after “also recorded” stand apart in the source; their conditions may differ. Not every detail of the peptide structures is certain; ends, links or a residue may be inferred. Bridge positions count the residues as written; N and C are the ends. Peptide text beside a SMILES is read from it.

Key:
[1] = stoichiometry of the complexes with LPS by amino acid analysis; assay type: binding; conditions: 10 μg B. Pertussis LPS (2.64 nmoles Lipid A) + 10 μg peptide
Protocol: Quantitation of the amount of precipitated peptides present in the complexes with PLS of B. pertussis has been done by amino acid analysis after acid hydrolysis (by 6 M HCl) of the complexes recovered by centrifugation at 3,000 rpm×15 minutes. In Table III, the stoichiometry of some complexes is reported as calculated by the ratio (on molar basis) between the amount of each peptide and the amount of Lipid A present in the structure of LPS used in the experiments:
*Complexes formed between 10 μg of B. Pertussis LPS (equivalent to 4.5
μg of Lipid A of 2.64 nmoles) and 10 μg of peptide (twice the amoun
corresponding to the saturation point found for Polymyxin "B" in the
**Values represent the average of two separate experiments of amino acid
analysis after acid hydrolysis of the recovered complexes.

[2] = LAL test, binding efficiency to endotoxin; assay type: biochemical; conditions: B. Pertussis endotoxin 4 EU/ml; PEPTIDE/LPS (w/w) 1
[3] = LAL test, binding efficiency to endotoxin; assay type: biochemical; conditions: E. Coli 055:B5 endotoxin 4 EU/ml; PEPTIDE/LPS (w/w) 1
[4] = LAL test, binding efficiency to endotoxin; assay type: biochemical; conditions: P. Aeruginosa endotoxin 4 EU/ml; PEPTIDE/LPS (w/w) 1
[5] = LAL test, binding efficiency to endotoxin; assay type: biochemical; conditions: S. Typsa endotoxin 4 EU/ml; PEPTIDE/LPS (w/w) 1
[6] = LAL test, binding efficiency to endotoxin; assay type: biochemical; conditions: K. Pneumonias endotoxin 4 EU/ml; PEPTIDE/LPS (w/w) 1
[7] = LAL test, binding efficiency to endotoxin; assay type: biochemical; conditions: S. Minnesota endotoxin 4 EU/ml; PEPTIDE/LPS (w/w) 1
[8] = LAL test, binding efficiency to endotoxin; assay type: biochemical; conditions: S. Marcescens endotoxin 4 EU/ml; PEPTIDE/LPS (w/w) 1
[9] = LAL test, binding efficiency to endotoxin; assay type: biochemical; conditions: S. Flexneri endotoxin 4 EU/ml; PEPTIDE/LPS (w/w) 1
[10] = LAL test, binding efficiency to endotoxin; assay type: biochemical; conditions: E. Coli 0111:B4 endotoxin 4 EU/ml; PEPTIDE/LPS (w/w) 1
[11] = LAL test, binding efficiency to endotoxin; assay type: biochemical; conditions: V. Choleras endotoxin 4 EU/ml; PEPTIDE/LPS (w/w) 1
[12] = prevention of endotoxin-induced death in CD1 mice sensitized with Actinomycin D; assay type: in vivo, mice (Strain CD1); conditions: for % survival / Mice surviving: 0.1 mg/mouse i.v., 1 μg endotoxin i.p.; for Mice surviving: 20 mice per group
Protocol: Prevention of endotoxin-induced death in mice, has been achieved by intravenous injection of the peptides of the invention. For this experiment, a strain of mice highly sensitive to the lethal activity of bacterial endotoxin has been used. Mice sensitized with Actinomycin D (Strain CD1) show a high sensitivity to extremely low doses of endotoxin. A dose as low as 1 μg of endotoxin per mouse (about 40 μg/kg of body weight) is able to completely kill a population of mice within 24-48 hours.
Groups of 20 mice CD1 have been treated intravenously with the peptides of the invention, with a single dose of 0.1 mg peptide, solubilized in sterile saline, per mouse. Thirty minutes later, mice were challenged by intraperitoneal injection of 1 μg of endotoxin purified from E. Coli strain 055-B5. Surviving mice were recorded every 24 hours during a seven days-period of observation. […] Negative controls received an intravenous injection of saline.
There were 20 mice per group. Mice surviving at each of the seven 24 hours observation periods are listed. The % survival appears in parenthesis. P expresses the level of statistical significance calculated by "t-Test" for each molecule compared to the treatment with saline, considering the total survival rate in each group.

SMILES	% survival ([12]; 24 hs) [%]	Mice surviving ([12]; 24 hs)	% survival ([12]; 48 hs) [%]	Mice surviving ([12]; 48 hs)	% survival ([12]; 72 hs) [%]	Mice surviving ([12]; 72 hs)	% survival ([12]; 96 hs) [%]	Mice surviving ([12]; 96 hs)	% survival ([12]; 120 hs) [%]	Mice surviving ([12]; 120 hs)	% survival ([12]; 144 hs) [%]	Mice surviving ([12]; 144 hs)	% survival ([12]; 168 hs) [%]	Mice surviving ([12]; 168 hs)	other results
CC(C)C[C@@H]1NC(=O)[C@H](Cc2ccccc2)NC(=O)[C@H](CCCCN)NC(=O)[C@@H](NC(=O)[C@H](CCCCN)NC(=O)[C@@H](NC(=O)[C@@H](N)CCCCN)[C@@H](C)O)CSSC[C@@H](C(=O)O)NC(=O)[C@H](CCCCN)NC(=O)[C@H](CCCCN)NC1=O [Peptide II] (H-KTKCKFLKKC-OH; disulfide 4-10)	65	13	40	8	40	8	40	8	40	8	40	8	40	8	Ratio peptide/LipA [1]: 1.28 mol/mol; Amount of peptide in the complex ([1]; average of two experiments): 3.39 nmol; EFFICIENCY OF BINDING (%) [2]: > 98%; EFFICIENCY OF BINDING (%) [3]: > 98%; EFFICIENCY OF BINDING (%) [4]: > 98%; EFFICIENCY OF BINDING (%) [5]: > 98%; EFFICIENCY OF BINDING (%) [6]: > 98%; EFFICIENCY OF BINDING (%) [7]: > 98%; EFFICIENCY OF BINDING (%) [8]: > 98%; EFFICIENCY OF BINDING (%) [9]: > 98%; EFFICIENCY OF BINDING (%) [10]: > 98%; EFFICIENCY OF BINDING (%) [11]: > 98%; efficacy compared with positive controls ([12]; CD1 mice, total survival rate): higher efficacy in comparison to PmB; also recorded: same efficacy of CPZ
CC(C)C[C@@H]1NC(=O)[C@H](Cc2ccccc2)NC(=O)[C@H](CCCCN)NC(=O)[C@@H](N)CSSC[C@@H](C(=O)O)NC(=O)[C@H](CCCCN)NC(=O)[C@H](CCCCN)NC1=O [Peptide I] (H-CKFLKKC-OH; disulfide 1-7)	40	8	20	4	15	3	15	3	15	3	15	3	15	3	
